{"source": "PubChem BioAssay AID902", "about": "(National Center for Advancing Translational Sciences (NCATS), 2007)", "note": "Where “and” joins values, the source holds several entries; their conditions need not be identical. Equal values may be shown once. Hit rate of the full screen: of about 130,000 compounds, about 1,900 (1.5%) were called active. This list was built around the results that the source calls inconclusive (neither active nor inactive); the mix of calls is not that of the screen. Calls follow the shape of the dose curve; as a rule, active = well fitted cell-killing curve with a large enough effect; inconclusive = small, poorly fitted or top-dose-only effect; inactive = no such curve, though single readings can be large or run the other way. Where the call is inconclusive, the potency comes from a doubtful curve fit. % is scaled to controls: 0 for no effect and ±100 for the full control effect; potency is read from the fitted curve at half-maximal effect; tags tell the direction and shape of the fitted curve.", "data": [{"assay": "qHTS Screen for Compounds that Selectively Target Cancer Cells with p53 Mutations: Cytotoxicity of p53ts Cells at the Nonpermissive Temperature; also: nearly all actives have a fitted effect of over 55% in size", "conditions": "H1299-p53A138V viability at 39C, ATP luminescence, 24 h; activity change, negative = cell killing: at 46.1 µM (top of the series)", "values": [{"smiles": "COc1cc2nc(Nc3cccc(F)c3)nc(N)c2cc1OC", "Potency": "inconclusive: 25.1 µM [cytotoxic, single point]"}, {"smiles": "Cc1ccsc1C(=O)Nc1nnc(-c2ccco2)o1", "Potency": "inconclusive: 20 µM [cytotoxic, single point]"}, {"smiles": "CCN(CC)S(=O)(=O)c1cc(C(=O)Nc2ccc(Cl)cn2)ccc1C", "Potency": "inconclusive: 10 µM [cytotoxic, partial curve]"}, {"smiles": "Cc1ccc2oc(-c3ccc(C)c(NC(=O)/C=C/c4ccco4)c3)nc2c1", "activity change, negative = cell killing": "inactive: -14.8%"}, {"smiles": "Cc1ccc(CNC(=O)Cn2ccn(-c3cccc(Cl)c3)c(=O)c2=O)cc1", "Potency": "inconclusive: 5.01 µM [cytotoxic, single point]"}, {"smiles": "O=C(c1ccc2c(c1)OCO2)N1CCc2ccccc2C1", "Potency": "inconclusive: 10 µM [cytotoxic, single point]"}, {"smiles": "COc1ccc(NC(=O)c2oc3ccccc3c2NC(=O)c2ccco2)c(OC)c1", "Potency": "inconclusive: 20 µM [cytotoxic, single point]"}, {"smiles": "CCc1ccc(OCC(=O)N(Cc2ccc(C(C)C)cc2)C2CCS(=O)(=O)C2)cc1", "note": "(stereo not drawn)", "Potency": "inconclusive: 12.6 µM [cytotoxic, partial curve]"}, {"smiles": "Oc1ccc(CNCc2ccccc2)c2cccnc12", "activity change, negative = cell killing": "inactive: 10.9% [at 9.22 µM]"}, {"smiles": "COc1ccc(OCC(=O)Nc2ccc3c(c2)nc(CCN2CCOCC2)n3C)cc1", "Potency": "inconclusive: 10 µM [cytotoxic, partial curve]"}, {"smiles": "Cc1cc(C)c(NC(=O)Cn2c(=O)c3cccn3c3ccccc32)c(C)c1", "Potency": "inconclusive: 12.6 µM [cytotoxic, partial curve, poor fit]"}, {"smiles": "COc1cccc(-n2ccnc2SCC(=O)Nc2c(C)cc(C)cc2C)c1", "activity change, negative = cell killing": "inactive: -19.6%"}, {"smiles": "O=C(/C=C/c1ccccc1)Nc1cc(-c2nc3cc(Cl)ccc3o2)ccc1Cl", "activity change, negative = cell killing": "inconclusive: -33.8% [cytotoxic]"}, {"smiles": "CCc1ccc(CN2C(=O)CCC2(C)C(=O)NC2CCCC2)cc1", "note": "(stereo not drawn)", "activity change, negative = cell killing": "inactive: -9.75%"}, {"smiles": "CC1CCCN(C(=O)c2cc3ccc4cccnc4c3[nH]2)C1", "note": "(stereo not drawn)", "Potency": "active: 1.58 µM"}, {"smiles": "COc1ccc(CCNC(=O)CCn2c(=O)c3ccccc3n(Cc3ccccc3F)c2=O)cc1OC", "Potency": "inconclusive: 15.8 µM [cytotoxic, single point]"}, {"smiles": "Cc1ccc(NC2=C/C(=N\\S(=O)(=O)c3cccs3)c3ccccc3C2=O)c(C)c1", "Potency": "active: 7.08 µM"}, {"smiles": "Cc1cccc(C(=O)OCc2cc(=O)n3ccsc3n2)c1", "Potency": "inconclusive: 31.6 µM [cytotoxic, single point]"}, {"smiles": "CC(=O)OC[C@@H]1O[C@@H](O/N=C2/C[C@@H](O)[C@@H](O)[C@@H]3[C@@H]4C(=O)N(Cc5ccccc5)C(=O)[C@H]4CC[C@H]23)[C@H](OC(C)=O)[C@H](OC(C)=O)[C@@H]1OC(C)=O", "activity change, negative = cell killing": "inactive: -0.187% [at 9.22 µM]"}, {"smiles": "c1ccc(CNc2nc3ccccc3[nH]2)cc1", "Potency": "inconclusive: 10 µM [cytotoxic, partial curve]"}, {"smiles": "Cc1ccc(-c2csc(-c3nc(-c4ccc(Br)s4)cs3)n2)cc1", "activity change, negative = cell killing": "inactive: -0.302%"}, {"smiles": "CCC(=O)N1CCCc2cc(S(=O)(=O)N3CCN(c4ncccn4)CC3)ccc21", "activity change, negative = cell killing": "inactive: -6.31%"}, {"smiles": "c1ccc2c(c1)oc1c(Nc3ccc(CN4CCOCC4)cc3)ncnc12", "Potency": "inconclusive: 31.6 µM [cytotoxic, single point]"}, {"smiles": "N[C@H](Cc1ccc(F)cc1)C(=O)O", "activity change, negative = cell killing": "inactive: -4.29%"}, {"smiles": "Cc1ccc(Nc2c(-c3c[nH]c4ccccc34)nc3ccccn23)cc1", "Potency": "active: 15.8 µM"}, {"smiles": "COC(=O)c1ccc(NC(=O)c2cccc(OC)c2)cc1", "Potency": "inconclusive: 15.8 µM [cytotoxic, partial curve]"}, {"smiles": "CCOC(=O)C(CC)n1nnc2sc(-c3ccccc3)cc2c1=O", "note": "(stereo not drawn)", "Potency": "inconclusive: 31.6 µM [cytotoxic, single point]"}, {"smiles": "O=C(NCCS(=O)(=O)N1CCN(c2ccc(F)cc2)CC1)C(c1ccccc1)c1ccccc1", "Potency": "inconclusive: 1.26 µM [cytotoxic, full curve]"}, {"smiles": "Cc1ccc(C)c(Cn2c3ccccc3c3cnn(CC(=O)NC(C)CCc4ccccc4)c(=O)c32)c1", "note": "(stereo not drawn)", "Potency": "active: 5.01 µM"}, {"smiles": "Cc1nn2c3cc(N4CCOCC4)ccc3nc2c2ccccc12", "Potency": "active: 2 µM"}, {"smiles": "O=C(CSc1nnc(-c2ccc(O)cc2)o1)N1CCOCC1", "Potency": "inconclusive: 10 µM [cytotoxic, single point]"}, {"smiles": "CC(=O)Oc1ccc(N2C(=O)C3C(C2=O)C2(C)C=CC3(C)O2)cc1", "note": "(stereo not drawn)", "Potency": "inconclusive: 31.6 µM [cytotoxic, single point]"}, {"smiles": "COc1ccc(-c2ccc3c(n2)CCCN3C[C@H](O)CN2CCCc3nc(-c4ccc(Br)cc4)ccc32)cc1", "activity change, negative = cell killing": "inactive: -1.73% [at 9.22 µM] and inactive: -7.33% [at 9.22 µM]"}, {"smiles": "CCOc1ccc(NC(=O)CSc2nnc(-c3ccncc3)n2CC2CCCO2)cc1", "note": "(stereo not drawn)", "activity change, negative = cell killing": "inactive: -5.27%"}, {"smiles": "Cc1cccc(-c2nc(CN3CCCC(C(=O)N4CCN(c5cc(Cl)ccc5C)CC4)C3)c(C)o2)c1", "note": "(stereo not drawn)", "Potency": "inconclusive: 31.6 µM [cytotoxic, single point]"}, {"smiles": "O=c1cc(-c2ccccc2)oc2cc(O[C@@H]3O[C@H](CO)[C@@H](O)[C@H](O)[C@H]3O)c(O)c(O)c12", "activity change, negative = cell killing": "inactive: -6.07%"}, {"smiles": "CC(C)(C)C(=O)Nc1ccc(-c2nc3ccc(NC(=O)C(C)(C)C)cc3[nH]2)cc1", "Potency": "inconclusive: 2 µM [cytotoxic, full curve]"}, {"smiles": "O=C(c1ccccc1)c1ccc(N2CCCC2)cc1", "Potency": "inconclusive: 10 µM [cytotoxic, single point]"}, {"smiles": "O=C(CSc1nc2c([nH]c3ccccc32)c(=O)n1-c1ccc(Cl)cc1)N1CCc2ccccc21", "Potency": "inconclusive: 31.6 µM [cytotoxic, partial curve, poor fit]"}, {"smiles": "O=c1cc(-c2ccccc2O)oc2ccc3ccccc3c12", "Potency": "active: 2 µM"}, {"smiles": "Cc1oc(-c2ccc(Cl)cc2)nc1CN1CCCC(C(=O)NCCc2ccc(Cl)cc2)C1", "note": "(stereo not drawn)", "Potency": "inconclusive: 20 µM [cytotoxic, single point]"}, {"smiles": "Cc1ccc(S(=O)(=O)c2c(O)cc(C)c(NS(=O)(=O)c3ccc(Br)cc3)c2C)cc1", "Potency": "inconclusive: 15.8 µM [cytotoxic, single point]"}, {"smiles": "CC(C)(C)OC(=O)N1CCC(c2c(C(=O)NCc3ccccc3)cnn2-c2cccc(F)c2)CC1", "activity change, negative = cell killing": "inactive: -11.8%"}]}]}
